Source: publication PMC4336329 (PLoS ONE, 2015)
Out of some 310,000 compounds screened, about 14,000 (4.5%) showed an effect of 50% or more. Effects have a minus sign here. This is one part of the list.

What follows are molecules tested against human ether-à-go-go-related gene (hERG) potassium channel (human, UniProt Q12809) (assay: primary screen, population patch clamp on CHO cells stably expressing hERG).
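Note: peak tail current of the secondary pulse compared with the same well before compound.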

Chain of human ether-à-go-go-related gene (hERG) potassium channel (Q12809 whole entry, looked up): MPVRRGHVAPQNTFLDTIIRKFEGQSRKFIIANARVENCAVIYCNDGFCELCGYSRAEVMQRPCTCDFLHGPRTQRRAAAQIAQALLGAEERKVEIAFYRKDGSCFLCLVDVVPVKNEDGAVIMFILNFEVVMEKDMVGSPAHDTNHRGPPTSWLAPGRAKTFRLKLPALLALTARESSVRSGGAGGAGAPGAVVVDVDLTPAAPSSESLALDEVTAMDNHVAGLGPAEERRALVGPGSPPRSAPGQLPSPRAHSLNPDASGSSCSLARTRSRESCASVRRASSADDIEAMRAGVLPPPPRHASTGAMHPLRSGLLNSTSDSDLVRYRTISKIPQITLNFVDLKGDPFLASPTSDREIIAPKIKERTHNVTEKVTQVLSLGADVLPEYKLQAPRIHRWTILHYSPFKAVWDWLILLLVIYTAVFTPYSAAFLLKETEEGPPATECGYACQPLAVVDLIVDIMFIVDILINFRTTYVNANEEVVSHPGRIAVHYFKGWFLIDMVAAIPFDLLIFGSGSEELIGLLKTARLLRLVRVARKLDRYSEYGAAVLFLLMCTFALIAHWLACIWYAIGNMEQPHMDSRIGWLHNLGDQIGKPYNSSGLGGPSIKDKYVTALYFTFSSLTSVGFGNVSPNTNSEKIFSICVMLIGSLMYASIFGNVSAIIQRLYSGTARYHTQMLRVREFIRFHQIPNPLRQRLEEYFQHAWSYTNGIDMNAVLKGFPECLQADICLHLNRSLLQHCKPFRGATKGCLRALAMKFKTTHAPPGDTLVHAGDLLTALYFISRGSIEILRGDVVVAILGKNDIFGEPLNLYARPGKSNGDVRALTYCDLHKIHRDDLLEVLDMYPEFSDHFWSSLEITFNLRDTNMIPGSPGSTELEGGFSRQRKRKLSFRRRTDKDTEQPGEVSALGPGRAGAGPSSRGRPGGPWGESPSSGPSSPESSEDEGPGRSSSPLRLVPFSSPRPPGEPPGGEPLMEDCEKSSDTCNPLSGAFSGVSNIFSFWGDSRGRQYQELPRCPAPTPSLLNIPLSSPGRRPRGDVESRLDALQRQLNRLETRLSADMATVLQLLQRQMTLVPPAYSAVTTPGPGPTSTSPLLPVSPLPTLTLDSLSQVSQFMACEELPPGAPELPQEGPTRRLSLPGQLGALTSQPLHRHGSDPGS

First: O=[N+]([O-])c1cccc(/C=N/NC2=NCCCCC2)c1
Second: Cc1ccc(CNC(=O)c2csc3c2CCCCC3)cc1
The “hERG current change (%, negative = inhibition) at 10uM” value of the first is lower: -83% for the first, 2.19% for the second.

Compared with `Cn1c(CN2CCN(C(=O)c3ccccc3Cl)CC2)nc2cc([N+](=O)[O-])ccc21`, `Cn1c(CN2CCCCC2)nc2cc(NS(=O)(=O)c3ccc(Cl)cc3)ccc21` is higher in “hERG current change (%, negative = inhibition) at 10uM” value: -70.7% for the first, -62.5% for the second.

First: COc1cc2[nH]c(=S)n(Cc3ccc(F)cc3)c(=O)c2cc1OC
Second: COc1cc2cc(CN(CCO)S(=O)(=O)c3ccccc3)c(=O)[nH]c2cc1OC
The “hERG current change (%, negative = inhibition) at 10uM” value of the first is higher: 20.8% for the first, -7.73% for the second.

Going from `Cc1ccc(C(=O)Nc2ccc(-n3ccnc3P(=O)([O-])c3ccccc3)cc2)cc1.[K+]` to `CCOc1ccc(-n2ccc(=O)c(C(=O)Nc3ccc(S(=O)(=O)Nc4nccs4)cc3)n2)cc1`, the “hERG current change (%, negative = inhibition) at 10uM” value rises from 13.4% to 24.7%.

Compared with `Cc1ccc(S(=O)(=O)N(C(=O)c2ccncc2)c2ccc(OC(=O)c3ccncc3)c3ccccc23)c(C)c1`, `Cc1ccc(Cn2c(=N)c(C(=O)NCc3ccco3)cc3c(=O)n4ccccc4nc32)cc1` is lower in “hERG current change (%, negative = inhibition) at 10uM” value: -23.2% for the first, -79.8% for the second.

Going from `CCOC(=O)COc1cc2c3c(c(=O)oc2cc1C)CCCC3` to `Cc1cc(N2CCCC2=O)cc(C)c1S(N)(=O)=O`, the “hERG current change (%, negative = inhibition) at 10uM” value rises from -1.76% to 3.59%.

First: CC1CCN(c2ccccc2NC(=S)NC(=O)c2ccco2)CC1
Second: O=C(NN1C(=O)C2CCCCC2C1=O)c1ccco1 (stereo not shown)
The “hERG current change (%, negative = inhibition) at 10uM” value of the first is lower: 5.64% for the first, 9.31% for the second.

Compared with `CC1=NN(Cc2c(C)nn(Cc3ccccc3)c2C)C(C)(C)C1`, `Cc1nn(C(=O)CNC(=O)c2ccccc2)c(C)c1C` is higher in “hERG current change (%, negative = inhibition) at 10uM” value: 11.2% for the first, 14.1% for the second.

Going from `CCCc1nc2sc3c(c2c(=O)[nH]1)CCCC3` to `Cc1nc(N2CCOCC2)c2c3c(sc2n1)CCC3`, the “hERG current change (%, negative = inhibition) at 10uM” value rises from 9.15% to 10.4%.

Going from `Cc1ccc(C)c(NC(=O)NNC(=O)CCc2ccccc2)c1` to `Cc1cccc(C(=O)NNC(=O)c2ccccc2-n2cccc2)c1`, the “hERG current change (%, negative = inhibition) at 10uM” value rises from 1.13% to 11.7%.

Going from `CC(=O)O[C@H]1C(=O)[C@@]2(C)C([C@H](OC(=O)c3ccccc3)[C@]3(O)C[C@H](OC(=O)[C@H](O)[C@@H](NC(=O)c4ccccc4)c4ccccc4)C(C)=C1C3(C)C)[C@]1(OC(C)=O)CO[C@@H]1C[C@H]2O` (stereo partly shown) to `COc1ccc(NC(=O)CC2C(=O)NCCN2C(=O)c2ccccc2)cc1` (stereo not shown), the “hERG current change (%, negative = inhibition) at 10uM” value falls from 13.1% to 12.7%.

Compared with `CC(Nc1ccc2c(c1)OCCO2)C(=O)N1CCc2ccccc21` (stereo not shown), `CCN(Cc1ccccc1)C(=O)CN1C(=O)COc2ccc(S(=O)(=O)N3CCCCCC3)cc21` is lower in “hERG current change (%, negative = inhibition) at 10uM” value: 15.3% for the first, -8.9% for the second.

First: Cc1cccc2c1CC(C)(C)N=C2C1=C(O)CCCC1=O
Second: COc1cc(C2C(C#N)=C(SC)NC3=C2C(=O)CCC3)ccc1O (stereo not shown)
The “hERG current change (%, negative = inhibition) at 10uM” value of the first is lower: 3.81% for the first, 10.9% for the second.

First: O=c1c2c(-c3cccs3)csc2ncn1-n1cccc1
Second: CCCCn1c(SCC(=O)Nc2nccs2)nc2ccccc2c1=O
The “hERG current change (%, negative = inhibition) at 10uM” value of the first is lower: -2.65% for the first, -1.12% for the second.

Going from `CCOc1cc(C=C(C#N)C#N)ccc1Oc1ccc([N+](=O)[O-])cn1` to `COc1cc(/C=N/n2cnnc2)ccc1OCc1ccc(C)cc1`, the “hERG current change (%, negative = inhibition) at 10uM” value falls from 16.1% to -2.99%.

First: CCOC(=O)C1CCCN(CCC(=O)Nc2c(C(=O)OC)[nH]c3cc(OC)ccc23)C1 (stereo not shown)
Second: COc1cccc(-c2ccc(NC(=O)C3CCCN(Cc4nccn4C)C3)cc2)c1 (stereo not shown)
The “hERG current change (%, negative = inhibition) at 10uM” value of the first is lower: -59.6% for the first, -31.8% for the second.

Going from `COc1ccc(CCNC(=O)c2cc3ccccc3oc2=O)cc1` to `COc1cccc(COc2ccc3c(C)cc(=O)oc3c2)c1`, the “hERG current change (%, negative = inhibition) at 10uM” value falls from 34.1% to 8.93%.

Going from `O=C(Nc1nc(-c2ccccc2)cs1)C1CCCCN1S(=O)(=O)c1ccc(Cl)cc1` (stereo not shown) to `CN(C)S(=O)(=O)c1cccc(NC(=O)c2sccc2-c2ccccc2)c1`, the “hERG current change (%, negative = inhibition) at 10uM” value falls from 16% to -26.1%.

Compared with `CSc1nc2cc(Cl)ccc2s1`, `COC(=O)Cc1[nH]n(-c2nc3ccccc3s2)c(=O)c1C(C)=Nc1ccc(Cl)cc1` is lower in “hERG current change (%, negative = inhibition) at 10uM” value: 9.34% for the first, -45.9% for the second.

Compared with `Nc1c(-c2nn[nH]n2)cnn1-c1cc(Cl)cc(Cl)c1`, `Cc1ccc(C(=O)COC(=O)CCC(=O)Nc2cccc(Cl)c2)cc1[N+](=O)[O-]` is higher in “hERG current change (%, negative = inhibition) at 10uM” value: 7.84% for the first, 11.7% for the second.

Going from `O=C(c1c(Cl)nc2sccn12)N(C(=O)c1c(Cl)nc2sccn12)c1ccc(Cl)cn1` to `CC(C)(C)c1ccc(C(=O)OCCNC(=O)c2c(Cl)nc3ccccn23)cc1`, the “hERG current change (%, negative = inhibition) at 10uM” value rises from -19.8% to -9.89%.

Going from `O=C(COC(=O)C12CC3CC(CC(O)(C3)C1)C2)Nc1ccc(Cl)cc1F` to `O=C(CN(C(=O)CSc1nc2ccccc2o1)c1cccc(F)c1)NC1CCCCC1`, the “hERG current change (%, negative = inhibition) at 10uM” value falls from -0.0996% to -2.34%.

First: CCc1ccc(NC(=O)COn2nnc3ccc(S(=O)(=O)N(C)C)cc32)cc1
Second: NS(=O)(=O)c1ccc(NC(=O)CN2C(=O)c3ccccc3C2=O)cc1
The “hERG current change (%, negative = inhibition) at 10uM” value of the first is lower: -29.1% for the first, 23.2% for the second.

Compared with `CCOc1ccc(C(=S)N2CCOCC2)cc1OCC`, `O=S(=O)(c1cccc(-c2n[nH]c(=S)n2C2CCCC2)c1)N1CCOCC1` is higher in “hERG current change (%, negative = inhibition) at 10uM” value: -6.45% for the first, 15.8% for the second.

First: COc1cccc(C(=O)NCCNC(=O)c2ccc(C)nc2)c1
Second: CC1=C(C(=O)Nc2cccc(C(=O)NCc3ccccc3C)c2)SCCO1
The “hERG current change (%, negative = inhibition) at 10uM” value of the first is higher: 18.1% for the first, 7.44% for the second.

Compared with `CCOC(=O)c1ccc(N2C(=O)CC(N3CCC(C#N)(c4ccccc4)CC3)C2=O)cc1` (stereo not shown), `COc1ccc(N2CCN(C(=O)Cn3c(=O)c4cccn4c4cccnc43)CC2)cc1` is lower in “hERG current change (%, negative = inhibition) at 10uM” value: 11.1% for the first, -15.3% for the second.

First: O=C1NC2(CCCCCC2)C(=O)N1Cc1ccc(Br)cc1
Second: Cc1ccc(CN2CCN(CC(=O)N=Nc3c(O)[nH]c4ccccc34)CC2)cc1
The “hERG current change (%, negative = inhibition) at 10uM” value of the first is higher: 4.06% for the first, -73.5% for the second.

Compared with `COc1ccccc1CC(NC(C)=O)C(=O)NC1CCN(C(=O)c2ccc([N+](=O)[O-])cc2)CC1` (stereo not shown), `O=C(C/C=N\OCc1ccc([N+](=O)[O-])cc1)Nc1ccccc1` is lower in “hERG current change (%, negative = inhibition) at 10uM” value: -25.4% for the first, -27.1% for the second.

Going from `O=C(N/N=C/c1ccccn1)c1cc(C2CC2)nc2ccccc12` to `Cc1cc(Nc2cccc(F)c2)nc(NCc2ccccc2)n1`, the “hERG current change (%, negative = inhibition) at 10uM” value falls from 4.26% to 0.72%.

Going from `COC(=O)c1cc(S(=O)(=O)NCc2cccs2)c[nH]1` to `CCN(CC)Cc1c[nH]c2c(C(=O)OC)cccc12`, the “hERG current change (%, negative = inhibition) at 10uM” value falls from 19.1% to -15.3%.

Going from `CC(=O)NNC(=S)NC(=O)c1ccccc1` to `CCC(O)(CC)C(=O)NN(C(=O)CCl)c1ccccc1`, the “hERG current change (%, negative = inhibition) at 10uM” value falls from 22.4% to 8.94%.

Compared with `CCOc1ccc(N2CCc3c(C)nc(SC)nc32)cc1`, `COc1ccc2cc(C(=O)C3CCCN(C(=O)c4cnccn4)C3)ccc2c1` (stereo not shown) is lower in “hERG current change (%, negative = inhibition) at 10uM” value: -2.26% for the first, -12.9% for the second.

Going from `CCc1nn(CC(=O)NCCCN(Cc2ccccc2)C(C)C)c(=O)c2cc3sccc3n12` to `CCN(C(=O)CCNC(=O)Cn1cnc2ccccc2c1=O)c1cccc(Cl)c1`, the “hERG current change (%, negative = inhibition) at 10uM” value rises from -43.8% to -4.36%.

First: CN(C)c1nc(OCc2ccccc2)c2ncc(=O)[nH]c2n1
Second: CCCc1nc(SCc2cccnc2)c2c(=O)n(C)c(=O)n(C)c2n1
The “hERG current change (%, negative = inhibition) at 10uM” value of the first is higher: 8.17% for the first, -57.3% for the second.

First: O=C(/C=C/c1ccc(F)cc1)Nc1cccc(S(=O)(=O)Nc2cccc(C(F)(F)F)c2)c1
Second: O=S(=O)(N/N=C/c1ccc(F)cc1)c1ccccc1
The “hERG current change (%, negative = inhibition) at 10uM” value of the first is higher: 21.2% for the first, 6.88% for the second.

Compared with `CCCOc1ccc(C(F)(F)F)cc1NC(=O)CCc1c(C)noc1C`, `CCN(CC(=O)Nc1ccc(OC)c(OC)c1)CC(=O)Nc1ccccc1C(F)(F)F` is higher in “hERG current change (%, negative = inhibition) at 10uM” value: -24.3% for the first, -0.147% for the second.

Going from `CCOc1ccc2[nH]c(=O)c(CN(Cc3ccco3)C(=O)c3cccc(F)c3)cc2c1` to `COc1ccc(C(=O)c2c(-c3ccc(OC)cc3)oc3ccc(-c4ccc(OC)nc4)cc23)cc1`, the “hERG current change (%, negative = inhibition) at 10uM” value rises from 9.04% to 12.8%.

First: CCCCC(=O)OCC(=O)c1cc(C)n(-c2c(C)n(C)n(-c3ccccc3)c2=O)c1C
Second: Cc1cc(C)cc(C(=O)NCC(=O)OC(C)C(=O)N(C)c2ccccc2)c1 (stereo not shown)
The “hERG current change (%, negative = inhibition) at 10uM” value of the first is higher: 16.1% for the first, 12.2% for the second.

Compared with `COc1ccc(-c2cc(C(F)(F)F)c(C#N)c(=O)[nH]2)cc1`, `Cc1ccc(Nc2c([N+](=O)[O-])ccc3nonc23)cc1C` is lower in “hERG current change (%, negative = inhibition) at 10uM” value: 18.8% for the first, 13.8% for the second.

Compared with `Cc1ccc2c(c1)[C@H]1[C@H](CO2)[C@H](c2ccccc2)[C@]2(C)C(=O)N(Cc3ccc(Cl)cc3)CC(=O)N12`, `Cc1cccc(Nc2ncnc3onc(-c4cccc(Cl)c4)c23)c1` is higher in “hERG current change (%, negative = inhibition) at 10uM” value: -3% for the first, 3.29% for the second.

First: CC(C)CCN1CCN(Cc2c(F)cccc2Cl)CC1CCO (stereo not shown)
Second: Cc1cc(C)nc(SCC(=O)N2CCC(C(N)=O)CC2)n1
The “hERG current change (%, negative = inhibition) at 10uM” value of the first is lower: -21.6% for the first, 10.2% for the second.

Going from `O=C(Nc1cccc(-n2cnnn2)c1)c1cccnc1` to `Cc1ccc(C2=NN(C(=O)CCC(=O)O)C(c3cccs3)C2)cc1` (stereo not shown), the “hERG current change (%, negative = inhibition) at 10uM” value rises from 4.53% to 15.2%.

For `C=CCNC(=O)C1(c2ccccc2)CC1(Cl)Cl` (stereo not shown), the “hERG current change (%, negative = inhibition) at 10uM” value was -5.1%.
